From PubChem BioAssay AID743279 (National Center for Advancing Translational Sciences (NCATS), 2014)
About 17,000 (4.7%) of roughly 360,000 compounds were called active. Inconclusive results, whose numbers are uncertain, are shown with a selection of clear calls. No stated cut-off is given here; in the data, active means activity change below about -50%; inconclusive means mostly about -30% to -49%; inactive means weaker than that.

Assay: qHTS for Inhibitors of Inflammasome Signaling: IL-1-beta AlphaLISA Primary Screen
Settings: THP-1 LPS/ATP IL-1B secretion, 16 h; at 57.5 µM, active compounds read low
Procedure, shortened: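 Secreted IL-1B measured by AlphaLISA bead assay after 16 h compound exposure of THP-1 cells; compounds (final up to 57.5 uM) added 1 h before LPS (250 ng/mL) and ATP (1.25 mM) stimulation; lower signal means less secretion.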
On the % scale 0 is the no-effect control and ±100 the full control effect.

Structure (SMILES)	activity change
CCN(CC)c1ncnc2c1sc1nc(C)cc(C)c12	inconclusive: -48.8%
O=C(Nc1ccc(F)cc1F)C1CCCN(c2ncnc3c2nc2n3CCCCC2)C1 (stereo not drawn)	active: -55.5%
O=C(NC1CCCCC1)c1cc2c(cc1Cl)N1CCCCCC1=NS2(=O)=O	inactive: 5.86%
COC(=O)c1c(NC(=O)CN2C(=O)NC3(CCCCC3C)C2=O)sc2c1CCC2 (stereo not drawn)	active: -52.3%
CCOc1ccc(CCN2C(=O)C(=O)N([C@@H](CC(C)C)CN3CCC[C@H]3CN3C(=O)C(=O)NC[C@@H]3Cc3ccccc3)C[C@@H]2Cc2ccccc2)cc1	inconclusive: -46.1%
CC(=N)c1c(O)c2ccccc2oc1=O	inconclusive: -45.5%
CCOc1ccc(N(CC(=O)NC2CCCCC2)C(=O)CSc2nnc(COc3ccccc3)o2)cc1	inconclusive: -44.2%
N#C/C(=C\c1ccc(N2CCOCC2)o1)c1ccccc1	active: -83.5%
Cc1cc(N2CCOCC2)nc2ccc(NC(=S)N3CCCCC3C)cc12 (stereo not drawn)	active: -66.8%
COc1cc(CNC2CCCC2)c(Br)cc1OC1CCCC1	inconclusive: -40.5%
O=C(Nn1c(O)c(C=C2N=c3ccccc3=N2)sc1=S)c1ccccc1Cl	inconclusive: -40.7%
Cc1nn(C)c(C)c1NC(=O)CCCSc1nc(-c2ccco2)cc(C(F)(F)F)n1	inconclusive: -36.2%
O=C(Nc1nnc(-c2ccccc2F)s1)Nc1ccccc1F	inactive: -8.7%
c1cc2c(cc1C1CCCN1)OCCCO2 (stereo not drawn)	inconclusive: -30.8%
O=C(Nc1cccnc1)c1cc(Cl)ccc1Cl	active: -60.5%
O=C(C1CC1)N1CCN(S(=O)(=O)c2ccc3c(c2)OCCO3)CC1	inactive: -5.99%
CCn1c(N)c(C(=O)NCc2ccco2)sc1=S	inconclusive: -30.8%
Cc1nc(SCc2ccc(Cl)c(Cl)c2)ncc1C(=O)O	inconclusive: -43.1%
Fc1ccc(C2c3[nH]c4ccccc4c3CCN2CCCn2cccn2)cc1 (stereo not drawn)	inconclusive: -48.1%
Cc1cccc(NC(=O)CS(=O)(=O)c2cn(C)c3ccccc23)c1C	inconclusive: -36%
O=C(CSc1nc(=O)n(CCCN2CCOCC2)c2c1CCCC2)Nc1ccc(F)c(F)c1	inconclusive: -37%
CC(=O)c1ccc(OCC(=O)Nc2ccc(N3CCCCC3)cc2)cc1	inactive: -11.5%

Structure (SMILES)	activity change
Cc1cc(C)n(-c2ccc(C(=O)Nc3cccc([N+](=O)[O-])c3)cc2)n1	inconclusive: -35.8%
Cc1c(NC(=O)c2cc(-c3ccc(Cl)s3)nc3ccccc23)c(=O)n(-c2ccccc2)n1C	inconclusive: -32.3%
O=C1NC(=S)N/C1=C\C=C\c1ccccc1	inconclusive: -33.9%
Cc1ccc(N2CCN(c3ccc(C)cc3)C2c2ccncc2)cc1	inconclusive: -38.3%
Cc1cc(Nc2nc3ccccc3nc2Cl)n(-c2ccccc2C)n1	inconclusive: -42.2%
CCNC(=S)N(Cc1ccc2c(c1)OCO2)C1CC(=O)N(c2ccc(OC)cc2)C1=O (stereo not drawn)	inconclusive: -31.1%
COc1cc(NS(=O)(=O)c2ccc(C)cc2)ccc1-n1cnnn1	inactive: 43.6%
Cc1cc(=O)oc2cc(NC(=O)c3c(Cl)cnn3C)ccc12	inconclusive: -33.8%
Cn1cnc([N+](=O)[O-])c1SCCO	inactive: 1.69%
CCOc1ccc(C2C(C(=O)c3cccs3)=C(O)C(=O)N2CCCn2ccnc2)cc1 (stereo not drawn)	inactive: 0%
O=C(CCNC(=O)C1CCN(S(=O)(=O)c2ccccc2)CC1)Nc1ccccc1	inconclusive: -36.4%
Cc1c(C(=O)N2CCN(C3CCS(=O)(=O)C3)CC2)oc2ccc(Cl)cc12 (stereo not drawn)	inactive: -5.64%
CCN(CC(=O)NCC1CCCO1)S(=O)(=O)c1ccc2ccccc2c1 (stereo not drawn)	inactive: 0.616%
O=C(Nc1ccc(F)c(Cl)c1)C1Cc2c(-c3ccccc3Oc3ccccc3)ccnc2O1 (stereo not drawn)	inconclusive: -46.7%
Cc1ccc(NC(=O)N2CCC(c3nc4c(nnn4Cc4cccc(Cl)c4)c(=O)[nH]3)CC2)cc1	inconclusive: -36.9%
Cc1sc2nc(CN3CCCC3)nc(N3CCN(S(=O)(=O)c4cccs4)CC3)c2c1C	inconclusive: -47.2%
COc1cc(C(=O)NNC(=S)NCc2ccco2)cc(OC)c1OC	inactive: 11.2%
CCOC(=O)c1ccoc1CSCC(=O)N1CCN(S(=O)(=O)c2ccc(C)cc2)CC1	inconclusive: -32.2%
Cc1nc2ccccn2c1-c1csc(Nc2cccc(C(=O)O)c2)n1	inactive: 29.8%
COc1ccc(OCCn2c(C)nc3ccccc32)cc1	inconclusive: -32%
COc1cccc(C(=O)Nc2cccc(NC(=O)c3ccccc3Cl)c2)c1	inconclusive: -34%
NC(=O)c1nn(CC(=O)Nc2cccc(S(=O)(=O)N3CCCC3)c2)c(=O)c2ccccc12	inactive: 15.4%

Structure (SMILES)	activity change
Cc1nc(-c2cccc(S(=O)(=O)N3CCCCC3)c2)cs1	active: -89.2%
CCc1nn(CC(=O)NCCCN(CC)CC)c(=O)c2cc3sc(C)cc3n12	inconclusive: -34.9%
COC(=O)c1c(C)cccc1C1CN=NC12Cc1ccccc1C2=O (stereo not drawn)	active: -89.9%
Cc1ccccc1C(=O)NN1C(=O)CSC1=S	inactive: -0.633%
COc1ccc(C2NC(=O)c3sc4nc(C)c(C(C)=O)c(-c5ccc(Cl)cc5)c4c3N2)cc1 (stereo not drawn)	inactive: 5.49%
CCN(Cc1ccccc1)C(=O)c1cc(COc2c(F)cccc2F)on1	inconclusive: -39.9%
O=CNc1ccccc1	inactive: 3.04%
Cc1ccc(-n2cc(CN3CCN(c4ccccn4)CC3)c(-c3ccc(F)cc3)n2)cc1	inconclusive: -40.1%
COc1ccc2cc(Br)ccc2c1CC(=O)NCCCN1CCOCC1	inconclusive: -36.8%
CC(C)(C)NC(=O)NC(=O)CN1C(=O)NC(c2ccccc2)(c2ccccc2)C1=O	inconclusive: -34.9%
NC(=S)N/N=C1\CC(c2ccc3c(c2)OCCCO3)Oc2ccc(F)cc21 (stereo not drawn)	active: -70.7%
COc1ccccc1NC(=O)c1c(Nc2ccccc2F)sc(C(=O)Nc2cccc(Cl)c2)c1N	inconclusive: -43.1%
CCOC(=O)c1[nH]c2ccc(F)cc2c1NC(=O)CN1CCN(C/C=C/c2ccccc2)CC1	active: -79.4%
O=C(NC(c1ccccc1)c1ccc2ccccc2n1)C1CCN(Cc2ccc(Oc3ccccc3)cc2)CC1 (stereo not drawn)	inconclusive: -39.7%
CCCCCN(C(=O)CCC(=O)OCC(=O)Nc1cccc(SC)c1)c1c(N)n(CCCC)c(=O)[nH]c1=O	inactive: -10.2%
O=C1CC(c2nc3ccccc3[nH]2)CN1c1cccc(C(F)(F)F)c1 (stereo not drawn)	inconclusive: -30.1%
O=C1NC[C@@H](CCCCN2CCN(CCC3CCCCC3)C(=O)C2=O)N(CC2CCCCC2)C1=O	inactive: 0%
CC(=O)N1N=C(c2ccc(C)cc2)CC1c1ccco1 (stereo not drawn)	inactive: -19.8%
Cc1ccc(S(=O)(=O)NC(=O)c2ccccc2C)cc1	inactive: -11.4%
Cn1ccc(C(=O)Nc2ccc(Br)cc2Br)n1	inactive: -9.42%
CSc1ccc(Cn2c(C)c(C(=O)NCc3ccc(Cl)c(Cl)c3)sc2=O)cc1	active: -58.2%
O=C(C/C=N/OCc1c(Cl)cccc1Cl)c1ccc(Cl)cc1	inconclusive: -41.1%

Structure (SMILES)	activity change
CCOC(=O)c1cc(-c2ccccc2)sc1NC(=O)CSc1nnc(N)s1	inactive: 21.7%
COc1ccc2[nH]c(C(=O)N3CCC(n4nccc4NC(=O)C4CC4)CC3)c(C)c2c1	inactive: 30.4%
CCc1ccc(CCC(=O)Nc2ccc(Br)cc2)o1	inconclusive: -42.3%
O=S1(=O)CCOC[C@H](CC2CCCCC2)N1Cc1ccccc1F	inactive: -16.3%
CC(=O)N1CCN(c2ccccc2NC(=O)c2ccc3ccccc3c2)CC1	inconclusive: -47.4%
CC1CC(=O)Nc2ccccc2N1C(=O)COc1ccc2cc(Br)ccc2c1 (stereo not drawn)	inconclusive: -46.2%
C[C@]12C[C@H](O)[C@H]3[C@@H](CCC4=CC(=O)CC[C@@]43C)[C@@H]1CC[C@@H]2C(=O)CO	inactive: -1.19%
COc1ccc(OC)c(NC(=O)C2CCCN(S(=O)(=O)c3cccc4cccnc34)C2)c1 (stereo not drawn)	inconclusive: -34%
CCC(C)NC(=O)c1ccc2c(Cl)c3c(nc2c1)CCC3 (stereo not drawn)	inconclusive: -33%
C/C(=N\NC(=O)c1cc(-c2ccc(C)s2)[nH]n1)c1ccncc1	inconclusive: -47%
O=C(Nc1cccc(Cl)c1N1CCCC1)c1ccco1	inconclusive: -47.3%
N#C/C(=C\c1c(N(Cc2ccccc2)Cc2ccccc2)nc2ccccn2c1=O)C(N)=O	inconclusive: -34.1%
Cc1cccc(NCc2cc(Cl)ccc2O)n1	active: -78.6%
CC1CCCCN1C(=O)c1cccc(NC2=C(Cl)C(=O)N(Cc3ccccc3)C2=O)c1 (stereo not drawn)	active: -88.1%
CCOC(=O)C1CCN(S(=O)(=O)c2ccc3c(c2)CC(C)N3C(=O)C2CC2)CC1 (stereo not drawn)	inactive: 32.3%
CC(=O)Nc1nc2cc(C(N)=O)ccc2s1	inconclusive: -41.1%
NNC(=O)CS(=O)(=O)c1ccc(Cl)cc1	inactive: 1.86%
O=[N+]([O-])c1cccc(NC(=S)NCCc2ccccc2)c1	inconclusive: -34.6%
CN(Cc1cccc(C(F)(F)F)c1)C(=O)C1CCC(=O)N(CC2CCCCC2)C1 (stereo not drawn)	inactive: -15.8%
COc1ccc(CCNCCN2CCOCC2)cc1	inactive: 5.77%
Cc1ccc(S(=O)(=O)N2CCN(CC(=O)N/N=C/c3ccc(Br)s3)CC2)cc1	inconclusive: -35.2%
COc1ccc(/C=C/C(=O)Nc2cc(C(F)(F)F)ccc2Cl)cc1OC	inconclusive: -49.3%
